# Source: PubChem BioAssay (NCI)
#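 Five compound concentrations were applied to cells in 96-well plates for 48 hours; endpoints were derived by simple linear interpolation of the resulting dose-response curve. GI50 marks 50% less growth. The concentration for full growth arrest is given as TGI.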
# Test system: NCI-H322M lung
# Test: growth of human tumour cells (NCI), 48 h
SMILES,TGI [µM],GI50 [µM]
CO[C@@]12[C@@H]3NC3CN1C1=C(C(=O)C(N)=C(C)C1=O)[C@@H]2COC(N)=O (some centres undefined),2.69,–
CC1(C)OC2C(COS(N)(=O)=O)SC(n3cnc4cncnc43)C2O1 (centres undefined),> 100,> 100
COC(=O)C1=C(O)C(C(=O)OC)[C@]2(O)[C@H](C(=O)OC)[C@H]1C[C@@H](c1ccc([N+](=O)[O-])cc1)[C@H]2C(=O)OC (some centres undefined),68.8,–
Cc1ccc(S(=O)(=O)n2cc(C#N)c(C#N)c2)cc1,> 100,–
O=C(Nc1cccc(-n2cc(-c3ccncc3)c(-c3ccc(O)c(Cl)c3)n2)c1)c1cccc(C(F)(F)F)c1,> 100,9.62
O=C1c2ccccc2C(=O)N1c1nc(-c2ccc(Cl)cc2)cc(N2N=C(c3ccc(Br)cc3)CC2c2ccccc2)n1 (centres undefined),> 100,–
O=C(c1ccc(Cl)cc1)C1OC12C(=O)Nc1ccccc12 (centres undefined),> 56.6,–
COc1ccc(S(=O)(=O)N(C)CC(=O)O)cc1,> 100,–
CCOC(=O)[C@H]1Nc2ccccc2C2c3ccccc3CC21 (some centres undefined),> 100,–
O=C(Nc1cccc(NC(=O)c2cc(=O)c3ccccc3o2)n1)c1cc(=O)c2ccccc2o1,> 100,–
CCN(CC)c1ccc2cc(-c3nc4ccccc4c(=O)[nH]3)c(=N)oc2c1,> 100,–
CC(C)C(=O)Oc1cc2c(=O)oc3c(OC(=O)C(C)C)c(OC(=O)C(C)C)cc4c(=O)oc(c1OC(=O)C(C)C)c2c34,> 100,–
CC(=O)Oc1ccc2c(c1)CC[C@@H]1C2CC[C@]2(C)C(=O)NC(=O)CC12 (some centres undefined),> 100,–
C/C(CC(=O)N(C(C)C)C(C)C)=N\NC(=O)c1ccncc1,> 100,–
S=c1nc(-c2ccnc(-c3nc(=S)[nH][nH]3)c2)[nH][nH]1,> 100,–
CN1C(=O)C(O)CC1c1cccc(C(F)(F)F)c1 (centres undefined),> 100,–
CSc1ccc(C(=O)C(=O)c2ccc(SC)s2)s1,> 10,–
CCN(CC)c1nc(N(C)C)c2ccccc2n1,> 100,–
CCOC(=O)C1COc2cc(-c3cc(=O)c4ccccc4o3)ccc2O1 (centres undefined),> 100,–
O=C1c2ccccc2C(=O)c2nc3ccc(Cl)cc3cc21,> 100,–
NCCOCC(N)C(=O)O (centres undefined),> 100,–
CSC1=NCC2(S1)c1ccccc1N(C(=O)OC(C)(C)C)C2N1CCCCC1 (centres undefined),> 100,> 100
Nc1ncnc2c1ncn2Cc1cccc(CCl)c1,38.2,–
COC(=O)CC(C(C(C)=O)C(=O)OCc1ccccc1)N1C(=O)OCC1c1ccccc1 (centres undefined),> 100,–
CSc1nc(NC(C)C)c2c(n1)Sc1nc3ccccc3n1C2O (centres undefined),> 100,–
COc1cnc2cc(C(=O)O)c3ccccc3c2c1,> 100,–
CC(=O)/C(=C\c1ccc(Cl)c(Cl)c1)C(=O)C(C)CN(C)C (centres undefined),13.9,–
COC(=O)[C@@H]1CN(C(=O)c2ccccc2)C(=O)N1C(=O)OCc1ccccc1,> 100,–
Cc1nc(N)nc2ccccc12,> 100,–
Nc1ccc2c(c1)c(N)nn2C(=O)Nc1ccc(Cc2ccccc2)cc1,27.5,13
